Paper PMC6919601, “Identification of Plasmodium dipeptidyl aminopeptidase allosteric inhibitors by high throughput screening” (PLoS ONE, 2019)
Among all 110,000 compounds or so, about 230 (0.21%) showed an effect of 50% or more. The list shows a part of the results.

Target: DPAP1 (Plasmodium falciparum, UniProt Q8IIJ9)
Test: primary screen, percent inhibition; read by cleavage of a fluorogenic dipeptide substrate; higher = more effect of the substance
Parameters: species or system P. falciparum D10 trophozoite lysates; single well
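Also: 30 min substrate incubation versus DMSO and 10 µM JCP410 controls.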

DPAP1, sequence (Q8IIJ9 whole entry, looked up): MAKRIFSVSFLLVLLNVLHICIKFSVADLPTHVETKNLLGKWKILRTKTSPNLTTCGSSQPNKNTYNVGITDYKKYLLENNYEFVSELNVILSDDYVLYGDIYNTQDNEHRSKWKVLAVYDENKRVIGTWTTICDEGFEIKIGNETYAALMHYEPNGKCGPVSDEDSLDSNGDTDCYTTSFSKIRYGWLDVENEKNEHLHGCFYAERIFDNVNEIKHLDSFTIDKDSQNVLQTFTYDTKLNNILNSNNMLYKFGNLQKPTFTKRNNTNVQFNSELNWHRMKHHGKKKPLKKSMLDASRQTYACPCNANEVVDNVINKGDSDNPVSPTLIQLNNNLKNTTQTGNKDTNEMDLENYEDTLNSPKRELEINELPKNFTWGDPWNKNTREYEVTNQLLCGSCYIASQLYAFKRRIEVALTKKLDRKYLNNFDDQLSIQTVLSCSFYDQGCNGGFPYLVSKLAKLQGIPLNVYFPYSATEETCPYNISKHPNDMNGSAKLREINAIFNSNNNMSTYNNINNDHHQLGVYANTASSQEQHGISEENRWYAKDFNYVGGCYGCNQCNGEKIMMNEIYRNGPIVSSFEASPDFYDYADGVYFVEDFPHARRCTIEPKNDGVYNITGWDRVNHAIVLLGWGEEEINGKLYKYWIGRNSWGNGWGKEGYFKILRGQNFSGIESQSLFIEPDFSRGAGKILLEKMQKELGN

| Compound | % Inhibition @ 10 uM [%] |
| --- | --- |
| COc1ccc(-c2ncnn2-c2cccc(C(F)(F)F)c2)cc1 | -1.15 |
| CN(C)c1nccc(N(Cc2ccccc2)Cc2ccccc2)c1C#N | 15.9 |
| CC(=O)c1c(-c2ccccc2)nc2n(C)c3cc(C)c(C)cc3n12 | -6.88 |
| COc1cc(/C=C2/N=C(c3cccc(Cl)c3Cl)OC2=O)cc(OC)c1OC | -8.18 |
| CC(C)(C)c1ccc(C(=O)OCCN2CCCCC2)cc1 | -1.81 |
| Cc1ccc(CNc2oc(COc3cccc(C)c3)nc2C#N)cc1 | 1.43 |
| CN(CC(=O)NCCN1CCN(Cc2ccccc2)CC1)S(=O)(=O)c1cccc2nsnc12 | -1.43 |
| Cc1c(C(=O)NCCN2CCc3ccccc3C2)sc2nc3n(c(=O)c12)CCCCC3 | -4.74 |
| CN(C)c1nc2ccc(O)cc2s1 | -7.55 |
| CC(=O)N1C(=O)CC(C)N(C(C)=O)c2ccc([N+](=O)[O-])cc21 (stereo not shown) | 0.847 |
| CSc1ccc(/C=C(/C#N)C(=O)Nc2ccc(Cl)cc2)cc1 | -1.54 |
| c1cc2noc3c4cccc5noc(c(c1)c23)c54 | -0.994 |
| COC1CCCCC1Nc1ccccc1 (stereo not shown) | 3.44 |
| CCc1nc(N)c(C#N)c(-c2ccccc2OC)c1C | 6.1 |
| Cc1ccc(NC(=O)Cn2cc(S(=O)(=O)N3CCCC3)c(S(=O)(=O)N3CCCC3)c2)nc1 | -1.7 |
| Cc1c(CNC(C)c2ccccc2)c(C(=O)O)c(C)n1Cc1ccc(F)cc1 (stereo not shown) | -5.49 |
| Cc1ccc(C2=NC3(CCNCC3)NC2=S)cc1 | 0.351 |
| CCOC(=O)c1cc(-c2ccc(OC)c(S(=O)(=O)N3CCOCC3)c2)on1 | -6.25 |
| Clc1nc2ccccc2nc1NCc1ccco1 | 8.36 |
| Cc1nn(CCCC(=O)NCc2ccccc2Cl)c(=O)c2c1sc1ccccc12 | -4.93 |
| CCn1cc(CNC(=O)c2cc(-c3ccccc3OC)nc3ccccc23)c(C)n1 | -9.75 |
| CC1=NC2(CCCCC2)Cc2ccccc21 | 4 |
| Cc1cccc(NCC(O)Cn2c(C)c(C)c3ccccc32)c1 (stereo not shown) | 0.389 |
| CCOC(=O)C(=O)N1CCc2ccccc2C1 | -5.7 |
| N#CCNC(=O)[C@@H]1CCCC[C@@H]1CSC1=NCCS1 | -3.04 |
| Cc1ccc(C(=O)Nc2ccc(C)c(C)c2)o1 | 4.05 |

| Compound | % Inhibition @ 10 uM [%] |
| --- | --- |
| COc1ccc(O)c(/C=N/c2sc3c(c2C#N)CCCC3)c1 | 1.12 |
| Cc1scc(CN2CCN(c3ccccn3)CC2)c1C | -6.98 |
| COC(=O)c1ccc(CSc2ccccc2)cc1 | -1.68 |
| COc1ccc(CN2CCC(Cc3ccccc3)CC2)cc1O | 0.847 |
| CC1CCCC(NC(=O)C2CCN(S(=O)(=O)c3c[nH]cn3)CC2)C1C (stereo not shown) | -0.499 |
| COc1ccc(/C=C2\C(=O)C(=O)c3ccccc32)cc1 | 7.99 |
| CCN(c1ccccc1C)S(=O)(=O)c1cc(Cl)ccc1Cl | 4.03 |
| CCOc1ccc(C(=O)N2CCc3cc(OC)c(OC)cc3C2c2ccccc2)cc1 (stereo not shown) | 3.59 |
| CC(=O)C1=C(C)NC(SCC(=O)Nc2nc3ccccc3s2)=C(C#N)C1c1cccnc1 (stereo not shown) | 4.08 |
| COc1cc(C(=O)NC(C)C(c2cccs2)N2CCOCC2)cc(OC)c1OC (stereo not shown) | 2.34 |
| Fc1ccccc1N1CCN(Cc2cccc(Br)c2)CC1 | 1.2 |
| Oc1ccc(SCCCCN2CCOCC2)cc1 | 5.66 |
| Cc1cc(C(=O)NCc2ccco2)on1 | -5.25 |
| COc1ccc(NC(=S)N2CCN(Cc3ccccc3)CC2)cc1 | 4.26 |
| C=CCn1c(Oc2ccccc2)nc2c1c(=O)n(C)c(=O)n2C | -1.92 |
| Cc1ccc(-c2c(N3CCN(C4CCCCC4)CC3)c(=O)c2=O)cc1C | 3.04 |
| Cc1cccc(NC(=O)CN2C(=O)N/C(=C/c3ccc(O)cc3)C2=O)c1 | -7.61 |
| CCN(CC)S(=O)(=O)N1CCC(C(=O)NCc2ccc3c(c2)OCO3)CC1 | -4.06 |
| COc1ccc(C2Nc3ccccc3N=C3CC(c4ccc(OC)c(OC)c4)CC(O)=C32)cc1O (stereo not shown) | 2.38 |
| CC1CN(C(=O)c2cccc(F)c2)C(C)CN1C(=O)c1cccc(F)c1 (stereo not shown) | 0.795 |
| Cc1ccc(S(=O)(=O)N(CC(=O)N2CCC(C)CC2)c2ccc(C)cc2C)cc1 | 6.01 |
| O=C(Cn1c2ccccc2c2cnnc(O)c21)N1CCOCC1 | -3.79 |
| CCOc1cc(/C=C(\C#N)C(=O)NCc2cccnc2)ccc1O | 14.8 |
| CCOC(=O)N1CCN(Cc2cc(F)ccc2F)CC1 | -1.41 |
| O=C(Nc1ccc2ccccc2c1)c1cccc(Br)c1 | 1.91 |
| O=C1C=CC(=O)N1c1cc([N+](=O)[O-])ccc1F | -4.04 |
